# Some of the results follow.
# Legend:
# Assay in all cases: glycan array binding signal (z-score within array); higher = stronger binding
# Conditions in all cases: glycan notation: IUPAC condensed, linker removed
# [1] = molecular target: GlcNAc(b1-3)Gal(b1-4)GlcNAc(b1-3)Gal(b1-4)GlcNAc(b1-3)Gal(b1-4)GlcNAc(b1-2)[GlcNAc(b1-3)Gal(b1-4)GlcNAc(b1-3)Gal(b1-4)GlcNAc(b1-3)Gal(b1-4)GlcNAc(b1-6)]Man(a1-6)[GlcNAc(b1-3)Gal(b1-4)GlcNAc(b1-3)Gal(b1-4)GlcNAc(b1-3)Gal(b1-4)GlcNAc(b1-2)Man(a1-3)]Man(b1-4)GlcNAc(b1-4)[Fuc(a1-6)]GlcNAc
# Method in brief: (§1)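 Columns mapping to the same glycan were averaged after glycan names were converted to IUPAC-condensed notation. The data come from 3228 arrays in the Consortium for Functional Glycomics database, limited to those with an available protein sequence. Binding is reported as a within-array Z-score averaged across arrays of one protein sequence and across linkers.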
# [2] = molecular target: GlcNAc(b1-3)Gal(b1-4)GlcNAc(b1-3)Gal(b1-4)GlcNAc(b1-3)Gal(b1-4)GlcNAc(b1-3)Gal(b1-4)GlcNAc(b1-2)Man(a1-3)[GlcNAc(b1-3)Gal(b1-4)GlcNAc(b1-3)Gal(b1-4)GlcNAc(b1-3)Gal(b1-4)GlcNAc(b1-3)Gal(b1-4)GlcNAc(b1-2)Man(a1-6)]Man(b1-4)GlcNAc(b1-4)GlcNAc
# Method in brief: as §1
# [3] = molecular target: GlcNAc(b1-3)Gal(b1-4)GlcNAc(b1-3)Gal(b1-4)GlcNAc(b1-3)Gal(b1-4)GlcNAc(b1-3)Gal(b1-4)GlcNAc(b1-2)Man(a1-3)[GlcNAc(b1-3)Gal(b1-4)GlcNAc(b1-3)Gal(b1-4)GlcNAc(b1-3)Gal(b1-4)GlcNAc(b1-3)Gal(b1-4)GlcNAc(b1-2)Man(a1-6)]Man(b1-4)GlcNAc(b1-4)[Fuc(a1-6)]GlcNAc
# Method in brief: as §1
# [4] = molecular target: GlcNAc(b1-3)Gal(b1-4)GlcNAc(b1-3)Gal(b1-4)GlcNAc(b1-3)Gal(b1-4)GlcNAc(b1-3)Gal(b1-4)GlcNAc(b1-2)[GlcNAc(b1-3)Gal(b1-4)GlcNAc(b1-3)Gal(b1-4)GlcNAc(b1-3)Gal(b1-4)GlcNAc(b1-3)Gal(b1-4)GlcNAc(b1-6)]Man(a1-6)[GlcNAc(b1-3)Gal(b1-4)GlcNAc(b1-3)Gal(b1-4)GlcNAc(b1-3)Gal(b1-4)GlcNAc(b1-3)Gal(b1-4)GlcNAc(b1-2)Man(a1-3)]Man(b1-4)GlcNAc(b1-4)[Fuc(a1-6)]GlcNAc
# Method in brief: as §1
# [5] = molecular target: GlcNAc(b1-3)Gal(b1-4)GlcNAc(b1-3)Gal(b1-4)GlcNAc(b1-3)GalNAc
# Method in brief: as §1
# [6] = molecular target: GlcNAc(b1-3)Gal(b1-4)GlcNAc(b1-3)GalNAc
# Method in brief: as §1
# [7] = molecular target: GlcNAc(b1-3)Gal(b1-4)GlcNAc(b1-3)[GlcNAc(b1-3)Gal(b1-4)GlcNAc(b1-3)]GalNAc
# Method in brief: as §1
# [8] = molecular target: GlcNAc(b1-3)Gal(b1-4)GlcNAc(b1-6)[Gal(b1-3)]GalNAc
# Method in brief: as §1
# [9] = molecular target: GlcNAc(b1-3)Gal(b1-4)GlcNAc(b1-6)[GlcNAc(b1-3)Gal(b1-3)]GalNAc
# Method in brief: as §1
# [10] = molecular target: GlcNAc(b1-3)Gal(b1-4)GlcNAc(b1-6)[GlcNAc(b1-3)]Gal(b1-4)GlcNAc
# Method in brief: as §1
# GlcNAc(b1-3)GalNAc = molecular target: GlcNAc(b1-3)GalNAc
# Method in brief: as §1
# GlcNAc(b1-3)Man = molecular target: GlcNAc(b1-3)Man
# Method in brief: as §1
# [11] = molecular target: GlcNAc(b1-3)[GlcNAc(b1-4)][GlcNAc(b1-6)]GlcNAc
# Method in brief: as §1
# [12] = molecular target: GlcNAc(b1-3)[GlcNAc(b1-6)]Gal(b1-4)GlcNAc
# Method in brief: as §1
# [13] = molecular target: GlcNAc(b1-3)[GlcNAc(b1-6)]GalNAc
# Method in brief: as §1
# [14] = molecular target: GlcNAc(b1-4)Gal(b1-4)GlcNAc
# Method in brief: as §1
# GlcNAc(b1-4)GlcNAc = molecular target: GlcNAc(b1-4)GlcNAc
# Method in brief: as §1
# [15] = molecular target: GlcNAc(b1-4)GlcNAc(b1-4)GlcNAc
# Method in brief: as §1
# [16] = molecular target: GlcNAc(b1-4)GlcNAc(b1-4)GlcNAc(b1-4)GlcNAc(b1-4)GlcNAc
# Method in brief: as §1
binder,measurement,setting,value
B725 (Bifidobacterium sp) (protein) MNNTTRAVIATAAIGALLIPLAGCGNTTTSSGKTELTVWSWDASIDRAAKSFMKANPDITVKVSNVGSTEETYTALNNAAQAGSGLPDVTLIEYLAIPQFVHSDTLMDLSKVYNTAKLKDTFTPGTWNSVNINGGLYAMPADSGPMAYFYDKDVFDKAGISEPPTTWDEFYEDAKKIRATGSYITSDSGDAGLFNAMMWAMGGHAYKLNDDKLTINIAKDKGAQRFMDLWQKMRDEDLIDVHTKTWTDDWMKSLGDGSIASLISGAWMANNLLQGVPQATGKFRVALLPTIDGTPINGEYGGSGLAITKKIPDGKLDAAKKFVEYVTTNDEGIDARVSNGSFPATTKTLNQKDFLAKTTLRNTDGSDNEFFGGQKYNEIFSQAAKDVTGKWEFLPFEPYARSVYNDNMGSFFAGKTSFRTAADNWQKALKDYAKDQGFTVQ,glycan array binding signal (z-score),[1],-0.196
same,glycan array binding signal (z-score),[2],-0.203
same,glycan array binding signal (z-score),[3],0.138
same,glycan array binding signal (z-score),[4],0.704
same,glycan array binding signal (z-score),[5],-0.19
same,glycan array binding signal (z-score),[6],-0.199
same,glycan array binding signal (z-score),[7],-0.204
same,glycan array binding signal (z-score),[8],-0.172
same,glycan array binding signal (z-score),[9],-0.208
same,glycan array binding signal (z-score),[10],-0.204
same,glycan array binding signal (z-score),GlcNAc(b1-3)GalNAc,-0.221
same,glycan array binding signal (z-score),GlcNAc(b1-3)Man,-0.204
same,glycan array binding signal (z-score),[11],-0.212
same,glycan array binding signal (z-score),[12],-0.22
same,glycan array binding signal (z-score),[13],-0.231
same,glycan array binding signal (z-score),[14],-0.222
same,glycan array binding signal (z-score),GlcNAc(b1-4)GlcNAc,-0.209
same,glycan array binding signal (z-score),[15],-0.22
same,glycan array binding signal (z-score),[16],-0.213
